According to patent US7592316B2, “Peptides as NS3-serine protease inhibitors of hepatitis C virus” (Schering Corporation, priority 2000, dated 2009):

molecular target: HCV NS3/NS4A protease (strain 1a) (Hepatitis C virus genotype 1a, UniProt P27958); assay: biochemical; details: Table 5; HCV NS3/NS4A protease, 30° C., pH 6.5; read-out: Ki* Range

| SMILES | pKi |
| --- | --- |
| CC(C)(C)OC(=O)CCNC(=O)C(=O)C(CCC1CO1)NC(=O)[C@@H]1[C@@H]2[C@H](CN1C(=O)[C@@H](NC(=O)NC13CC4CC(CC(C4)C1)C3)C1CCCCC1)C2(C)C (some centres unmarked) | 6.00 to 7.00 |
| C=CCCNC(=O)C(=O)C(CCC=C)NC(=O)[C@H](CCC(C)C)NC(=O)[C@@H](NC(=O)OC(C)(C)C)C1CCCCC1 (some centres unmarked) | < 6.00 |
| C=CCCC(NC(=O)[C@@H]1[C@@H]2[C@H](CN1C(=O)[C@@H](NC(=O)OC(C)(C)C)C1CCCCC1)C2(C)C)C(=O)C(=O)NCCC(=O)NCc1ccccc1 (some centres unmarked) | 7.00 to 9.00 |
| CCCC(NC(=O)[C@@H]1[C@@H]2[C@@H](CN1C(=O)[C@@H](NC(=O)OC(C)(C)C)C1Cc3ccccc3C1)C2(C)C)C(=O)C(=O)NCC(=O)NCc1ccccc1 (some centres unmarked) | 7.00 to 9.00 |
| C=CCCC(NC(=O)[C@@H]1[C@H]2[C@@H](CN1C(=O)[C@@H](NC(=O)OC(C)(C)C)C1CCCCC1)C2(Cl)Cl)C(=O)C(=O)NCCC(=O)NC(C)(C)C (some centres unmarked) | 7.00 to 9.00 |
| CNC(=O)C(=O)C(CC1CC1)NC(=O)[C@@H]1[C@@H]2[C@H](CN1C(=O)[C@@H](NC(=O)NC(C)(C)C)C1CCCCC1)C2(C)C (some centres unmarked) | 6.00 to 7.00 |
| CNC(=O)C(=O)C(CC1CC1)NC(=O)[C@@H]1[C@@H]2[C@H](CN1C(=O)[C@@H](NC(=O)NC(C)(C)C)C(C)(C)C)C2(C)C (some centres unmarked) | 6.00 to 7.00 |
| CNC(=O)C(=O)C(CC1CC1)NC(=O)[C@@H]1[C@@H]2[C@H](CN1C(=O)[C@@H](NC(=O)NC1CCCCC1)C(C)(C)C)C2(C)C (some centres unmarked) | 6.00 to 7.00 |
| C=CCCC(NC(=O)[C@@H]1[C@@H]2[C@H](CN1C(=O)[C@@H](NC(=O)OC(C)(C)C)C1CCCCC1)C2(C)C)C(=O)C(=O)NCC(=O)OC(C)(C)Cc1ccccc1 (some centres unmarked) | 6.00 to 7.00 |
| C=CCCC(NC(=O)[C@@H]1[C@@H]2[C@H](CN1C(=O)[C@@H](NC(=O)OC(C)(C)C)C1CCCCC1)C2(C)C)C(=O)C(=O)NCCC(=O)OC(C)(C)CC (some centres unmarked) | 7.00 to 9.00 |
| C=CCCC(NC(=O)[C@@H]1[C@@H]2[C@H](CN1C(=O)[C@@H](NC(=O)NC13CC4CC(CC(C4)C1)C3)C1CCCCC1)C2(C)C)C(=O)C(=O)NCC(=O)N(C)Cc1ccccc1 (some centres unmarked) | 6.00 to 7.00 |
| C=CCCC(NC(=O)[C@@H]1[C@@H]2[C@H](CN1C(=O)[C@@H](NC(=O)NC13CC4CC(CC(C4)C1)C3)C1CCCCC1)C2(C)C)C(=O)C(=O)NCC(=O)N(Cc1ccccc1)Cc1ccccc1 (some centres unmarked) | < 6.00 |
| C=CCNC(=O)C(=O)C(CCC)NC(=O)[C@@H]1[C@@H]2[C@H](CN1C(=O)C(NC(=O)OC1C3(C)CCC(C3)C1(C)C)C1CCCCC1)C2(C)C (some centres unmarked) | 7.00 to 9.00 |
| CCCC(NC(=O)[C@@H]1[C@H]2[C@@H](CN1C(=O)[C@@H](NC(=O)NC(C)(C)C)C(C)(C)C)C2(Cl)Cl)C(=O)C(=O)NCC(=O)NCc1ccccc1 (some centres unmarked) | 7.00 to 9.00 |
| C=CCC(NC(=O)[C@@H]1[C@@H]2[C@H](CN1C(=O)[C@@H](NC(=O)OC(C)(C)C)C1CCCCC1)C2(C)C)C(=O)C(=O)NCCS(=O)(=O)C(C)(C)C (some centres unmarked) | 6.00 to 7.00 |
| C=CCNC(=O)C(=O)C(CCC)NC(=O)[C@@H]1[C@@H]2[C@H](CN1C(=O)[C@@H](NC(=O)NC(C)(C)C)C(C)C)C2(C)C (some centres unmarked) | 6.00 to 7.00 |
| C#CC(C)(C)OC(=O)CCNC(=O)C(=O)C(CCC=C)NC(=O)[C@@H]1[C@@H]2[C@H](CN1C(=O)[C@@H](NC(=O)OC(C)(C)C)C(C)(C)C)C2(C)C (some centres unmarked) | 6.00 to 7.00 |
| CCCC(NC(=O)[C@@H]1[C@@H]2[C@H](CN1C(=O)[C@@H](NC(=O)OC(C)(C)C)C1CCCCC1)C2(C)C)C(=O)C(=O)NCCS(=O)(=O)C(C)(C)C (some centres unmarked) | < 6.00 |
| CNC(=O)C(=O)C(CC(F)(F)F)NC(=O)[C@@H]1[C@@H]2[C@H](CN1C(=O)[C@@H](NC(=O)OC(C)(C)C)C1CCCCC1)C2(C)C (some centres unmarked) | 7.00 to 9.00 |
| CC(C)(C)OC(=O)N[C@H](C(=O)N1C[C@H]2[C@@H]([C@H]1C(=O)NC(CC(F)(F)F)C(=O)C(=O)NCCS(=O)(=O)C(C)(C)C)C2(C)C)C1CCCCC1 (some centres unmarked) | 6.00 to 7.00 |
| C=CCCC(NC(=O)[C@@H]1[C@H]2[C@@H](CN1C(=O)C(NC(=O)NC(C)(C)C)C1CCCCC1)C2(Cl)Cl)C(=O)C(=O)NCC=C (some centres unmarked) | 7.00 to 9.00 |

| SMILES | pKi |
| --- | --- |
| C=CCCC(NC(=O)[C@@H]1[C@H]2[C@@H](CN1C(=O)C(NC(=O)NC1CC3CCC1C3)C1CCCCC1)C2(Cl)Cl)C(=O)C(=O)NCC=C (some centres unmarked) | < 6.00 |
| C=CCC(NC(=O)[C@@H]1[C@@H]2[C@H](CN1C(=O)[C@@H](NC(=O)OC(C)(C)C)C1Cc3ccccc3C1)C2(C)C)C(=O)C(=O)NCC(=O)NCc1ccccc1 (some centres unmarked) | 7.00 to 9.00 |
| CCCC(NC(=O)[C@@H]1[C@@H]2[C@H](CN1C(=O)[C@@H](NC(=O)OC(C)(C)C)C1Cc3ccccc3C1)C2(C)C)C(=O)C(=O)NC (some centres unmarked) | 7.00 to 9.00 |
| C=CCCC(NC(=O)[C@@H]1[C@@H]2[C@H](CN1C(=O)[C@@H](NC(=O)NC13CC4CC(CC(C4)C1)C3)C1CCCCC1)C2(C)C)C(=O)C(=O)NCC(=O)OC(C)(C)c1ccccc1 (some centres unmarked) | 7.00 to 9.00 |
| C=CCCC(NC(=O)[C@@H]1[C@H]2[C@@H](CN1C(=O)C(NC(=O)NC(C)(C)CC(C)(C)C)C1CCCCC1)C2(Cl)Cl)C(=O)C(=O)NCC=C (some centres unmarked) | 6.00 to 7.00 |
| CCCC(NC(=O)[C@@H]1[C@@H]2[C@H](CN1C(=O)[C@@H](NC(=O)OC(C)(C)C)C(C)(C)C)C2(Cl)Cl)C(=O)C(=O)NCC(=O)NCc1ccccc1 (some centres unmarked) | 7.00 to 9.00 |
| C=CCCC(NC(=O)[C@@H]1[C@H]2[C@@H](CN1C(=O)[C@@H](NC(=O)OC(C)(C)C)C1CCCCC1)C2(C)C)C(=O)C(=O)NCCC(=O)OC(C)(C)C=C (some centres unmarked) | 7.00 to 9.00 |
| C=CCCC(NC(=O)[C@@H]1[C@H]2[C@@H](CN1C(=O)[C@@H](NC(=O)NC(C)(C)C)C1CCCCC1)C2(C)C)C(=O)C(=O)NCCS(=O)(=O)C(C)(C)C (some centres unmarked) | 7.00 to 9.00 |
| C=CCNC(=O)C(=O)C(CCC)NC(=O)[C@@H]1[C@H]2[C@@H](CN1C(=O)C(NC(=O)OC(C)(C)C)C1CCCCC1)C2(Cl)Cl (some centres unmarked) | 7.00 to 9.00 |
| C=CCC[C@H](NC(=O)[C@@H]1[C@H]2[C@@H](CN1C(=O)C(NC(=O)OC(C)(C)C)C1Cc3ccccc3C1)C2(Cl)Cl)C(=O)C(=O)NCCC(=O)NC(C)(C)C (some centres unmarked) | 7.00 to 9.00 |
| CCCC(NC(=O)[C@@H]1C2C(CN1C(=O)C(NC(=O)OC(C)(C)C)C1Cc3ccccc3C1)C2(Cl)Cl)C(=O)C(=O)NCC(=O)NCc1ccccc1 (some centres unmarked) | 7.00 to 9.00 |
| C=CCCC(NC(=O)[C@@H]1C2C(CN1C(=O)C(NC(=O)OC(C)(C)C)C(C)(C)C)C2(C)C)C(=O)C(=O)NCCS(=O)(=O)C(C)(C)C (some centres unmarked) | 6.00 to 7.00 |
| C=CCCC(NC(=O)[C@@H]1[C@@H]2[C@H](CN1C(=O)[C@@H](NC(=O)NC(C)(C)C)C1CCCCC1)C2(C)C)C(=O)C(=O)NCCS(=O)(=O)C1CCCC1 (some centres unmarked) | 7.00 to 9.00 |
| C=CCNC(=O)C(=O)C(CCC)NC(=O)[C@@H]1C2C(CN1C(=O)[C@@H](NC(=O)O[C@@H]1CCC[C@@H]1C)C1Cc3ccccc3C1)C2(C)C (some centres unmarked) | 7.00 to 9.00 |
| CCCC(NC(=O)[C@@H]1[C@@H]2[C@H](CN1C(=O)[C@@H](NC(=O)OC(C)(C)C)C1CCCCC1)C2(C)C)C(=O)C(=O)NCC(=O)NCc1ccccc1 (some centres unmarked) | 7.00 to 9.00 |
| CCCC(NC(=O)[C@@H]1[C@@H]2[C@H](CN1C(=O)[C@@H](NC(=O)OC(C)(C)C)C(C)(C)C)C2(C)C)C(=O)C(=O)NCC(=O)NCc1ccccc1 (some centres unmarked) | 7.00 to 9.00 |
| CCCC(NC(=O)[C@@H]1C2C(CN1C(=O)[C@@H](NC(=O)OC(C)(C)C)C1CCCC1)C2(C)C)C(=O)C(=O)NCC(=O)NCc1ccccc1 (some centres unmarked) | 7.00 to 9.00 |
| CCCC(NC(=O)[C@@H]1[C@@H]2[C@H](CN1C(=O)[C@@H](NC(=O)OC(C)(C)C)C(C)(C)C)C2(C)C)C(=O)C(=O)NCCS(C)(=O)=O (some centres unmarked) | < 6.00 |
| CCCC(NC(=O)[C@@H]1[C@@H]2[C@H](CN1C(=O)[C@@H](NC(=O)OC(C)(C)C)C(C)(C)C)C2(C)C)C(=O)C(=O)NCCS(=O)(=O)c1ccccc1 (some centres unmarked) | 6.00 to 7.00 |
| CCCC(NC(=O)[C@@H]1[C@@H]2[C@H](CN1C(=O)[C@@H](NC(=O)NC(C)(C)C)C(C)(C)C)C2(C)C)C(=O)C(=O)NCC(=O)NCc1ccccc1 (some centres unmarked) | 7.00 to 9.00 |

pKi: −log10 of the molar value.
